From article PMC4336329 (PLoS ONE, 2015)
Hit rate of the full screen: of about 310,000 compounds, about 2,200 (0.71%) showed an effect of 50% or more. The effect is printed as a negative number. The list shows a part of the results.

Target: human ether-à-go-go-related gene (hERG) potassium channel (human, UniProt Q12809)
Test: primary screen, population patch clamp on CHO cells stably expressing hERG

human ether-à-go-go-related gene (hERG) potassium channel, sequence (Q12809 whole entry, looked up): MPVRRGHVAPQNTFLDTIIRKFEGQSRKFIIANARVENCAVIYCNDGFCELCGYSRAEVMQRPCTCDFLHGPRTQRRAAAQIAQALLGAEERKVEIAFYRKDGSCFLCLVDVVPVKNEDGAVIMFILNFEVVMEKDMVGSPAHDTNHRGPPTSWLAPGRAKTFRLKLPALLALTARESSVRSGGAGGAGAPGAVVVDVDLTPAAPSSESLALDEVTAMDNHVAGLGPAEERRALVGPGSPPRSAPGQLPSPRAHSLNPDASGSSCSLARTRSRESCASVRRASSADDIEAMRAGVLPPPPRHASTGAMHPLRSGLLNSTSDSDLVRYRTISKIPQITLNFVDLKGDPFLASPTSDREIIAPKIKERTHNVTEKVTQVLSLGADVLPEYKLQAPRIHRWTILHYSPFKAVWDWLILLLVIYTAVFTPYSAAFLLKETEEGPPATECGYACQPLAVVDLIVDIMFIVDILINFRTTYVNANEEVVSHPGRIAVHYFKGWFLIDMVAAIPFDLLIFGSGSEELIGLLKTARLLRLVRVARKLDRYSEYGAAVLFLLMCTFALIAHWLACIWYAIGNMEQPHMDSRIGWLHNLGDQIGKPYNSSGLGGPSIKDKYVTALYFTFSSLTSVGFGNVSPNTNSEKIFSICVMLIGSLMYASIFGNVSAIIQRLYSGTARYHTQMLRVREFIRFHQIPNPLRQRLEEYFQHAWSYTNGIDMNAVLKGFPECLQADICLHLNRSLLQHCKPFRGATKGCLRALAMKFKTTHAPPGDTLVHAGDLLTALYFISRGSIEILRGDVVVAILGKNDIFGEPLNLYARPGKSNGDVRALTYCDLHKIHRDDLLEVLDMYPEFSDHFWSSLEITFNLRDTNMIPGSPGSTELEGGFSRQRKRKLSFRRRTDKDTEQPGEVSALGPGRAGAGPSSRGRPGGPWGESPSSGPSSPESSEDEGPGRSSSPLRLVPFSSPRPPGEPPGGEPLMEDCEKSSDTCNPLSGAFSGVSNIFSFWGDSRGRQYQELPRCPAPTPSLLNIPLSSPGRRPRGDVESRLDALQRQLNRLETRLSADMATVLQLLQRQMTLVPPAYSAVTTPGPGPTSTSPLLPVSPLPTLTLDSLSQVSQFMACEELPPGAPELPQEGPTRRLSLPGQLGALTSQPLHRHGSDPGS

Structure (SMILES) | hERG current change (%, negative = inhibition) at 1uM [%]
COc1cc(CCC(=O)OCC(=O)Nc2ccc(F)cc2F)cc(OC)c1OC | 19.6
CCCOc1cccc(C(=O)Nc2cccc(NC(=O)c3ccco3)c2)c1 | 4.36
COc1ccc(C(=O)COC(=O)CN2C(=O)c3ccccc3C2=O)c(OC)c1 | 6.04
O=C(NCC1CC1)Nc1cccc(C(F)(F)F)c1 | 14.4
O=C(CCNS(=O)(=O)c1cccc2nonc12)NCc1cccs1 | 8.08
CCc1ccccc1N1C(=O)C2C3C=CC(CC3)C2C1=O (centres unmarked) | 12.2
Cc1ccc(S(=O)(=O)NNC(=O)c2csnn2)cc1 | 4
COc1cc(/C=N/NC(=O)c2ccncc2)ccc1OC(=O)c1cccc(Br)c1 | 3.27
CCOc1ccc(N2Nc3n[nH]c(N)c3N2)cc1 | 7.16
CCSc1nc2sc3c(c2c(=O)n1-c1ccc(OC)cc1)CCN(C)C3 | 6.26
Cc1c(Cl)c([N+](=O)[O-])nn1CC(=O)NCC(C)C | 5.93
O=C(NC12CC3CC(CC(C3)C1)C2)c1ccc(-c2cccc(Cl)c2)o1 | 21.9
CC1=C(C)CC(C(=O)NC2CCN(C(C)C)CC2)C(C(=O)O)C1 (centres unmarked) | 17
CCCCCCNC(=O)CC(c1ccccc1)c1cc(Br)ccc1O (centres unmarked) | 8.74
CCCCN1C(=O)C(C2c3ccccc3C(=O)N2Cc2ccccc2)C(=O)NC1=S (centres unmarked) | -13.4
O=C(Cc1cccs1)NCCc1ccc(F)cc1 | 14.5
Cc1ccc(N(C(=O)Cn2nnc3ccccc32)C(C(=O)NC2CCCCC2)c2cn(C)nc2C)cc1 (centres unmarked) | 15.7
COc1ccc(-c2ccc(OC)cc2)cc1 | 0.776
COc1ccc(CN(C)C(=O)c2ccc(NS(=O)(=O)c3ccccc3)cc2)c(OC)c1 | -10.7
COc1ccccc1N1CCN(C2CCN(C3CCC(c4ccccc4)CC3)CC2)CC1.O=C(O)C(=O)O (centres unmarked) | -34.5
Cc1ccc(C(=O)NC(=S)NNC(=O)c2ccccc2)cc1 | 25.9
CC(C)OCCCNC(=O)c1ccc2c(c1)NC(=O)c1ccccc1S2 | 11.9
CCOC(=O)Cn1cc(/C=N/NC(=O)c2cc3ccccc3o2)c2ccccc21 | 12.9

Structure (SMILES) | hERG current change (%, negative = inhibition) at 1uM [%]
O=C(COc1ccc(Cl)cc1)N1CCCCC1 | 4.93
CCCCN(CCCC)CCCOC(=O)c1ccc(N)cc1 | -13.2
CC1C(=O)N2CCCc3cc(NC(=O)C(=O)NCCCc4ccccc4)cc1c32 (centres unmarked) | 4.72
Cc1nnc(SCC(=O)N(CC(C)C)C2CCS(=O)(=O)C2)n1N (centres unmarked) | 13.5
Cc1ccc(C(=O)N/C(=C/c2ccco2)C(=O)NCCc2c[nH]c3ccccc23)cc1 | 7.53
COc1cc(C(=O)N2CCCc3ccccc32)cc(OC)c1OC | 10.7
CC(C)C(C)(C#N)NC(=O)CSc1nncn1-c1ccccc1 (centres unmarked) | 12.2
CCC1(c2ccccc2)C(=O)N(COC)C(=O)N(COC)C1=O | 16.8
CC(OC(=O)CCN=C1NS(=O)(=O)c2ccccc21)C(=O)N(C)C1CCCCC1 (centres unmarked) | 17.3
Cc1c(Br)c(C(F)(F)F)nn1CC(=O)NCc1ccccc1 | 19.1
O=C(CSc1nc(-c2ccccc2)c(-c2ccccc2)[nH]1)NCC1CCCO1 (centres unmarked) | 11.7
CCC(C)(C)n1nnnc1C(c1ccccc1F)N1CCN(C(=O)c2ccco2)CC1 (centres unmarked) | -2.07
COc1ccccc1NCc1ccc([N+](=O)[O-])s1 | -9.71
CCOC(=O)c1cccc(C(=O)Nc2nc3ccc(OC)cc3s2)n1 | 11.6
Cc1ccc(S(=O)(=O)N2CCC(=O)N(C(COCc3cccc(C(F)(F)F)c3)C(C)C)CC2)cc1 (centres unmarked) | 0.419
Fc1cccc(NC(=S)NCc2ccccc2Cl)c1 | 13.8
N#Cc1ccsc1NC(=O)CN1CCN(c2ccc(O)cc2)CC1 | 6.33
Cc1nnc(NC(=O)c2cccc(S(=O)(=O)N3CCCC3)c2)s1 | 10.1
O=C(NCCN1CCOCC1)/C(=C/c1ccc(F)cc1)NC(=O)c1ccccc1 | -58.4
NC(=O)NC(=O)CSc1nnc(-c2ccc(Cl)cc2)n1CC1CCCO1 (centres unmarked) | 16.1
O=C(Nc1cccc(O)c1)C1CC(c2ccc(Cl)cc2)=NO1 (centres unmarked) | 1.25
O=C(CSc1ccc(-c2ccncc2)nn1)N1CCCC1 | 2.04
CCOc1ccccc1N(CC(=O)N1CCCCCC1)S(=O)(=O)c1ccc(C)cc1 | 3.7

Structure (SMILES) | hERG current change (%, negative = inhibition) at 1uM [%]
Cc1cc(CN2CCCCC2C(=O)Nc2ccc(Oc3cccnc3)cc2)oc1C (centres unmarked) | 7.01
COc1cccc(-c2cc(C(=O)NCC3CCCO3)c3cc(C)cc(C)c3n2)c1 (centres unmarked) | 14.8
O=C(NC(=S)N1CCCCC1)c1cccnc1 | 14.3
O=C(NC(=S)Nc1ccc(N2CCCCC2)c(Cl)c1)c1cccs1 | 3.59
Cc1cc2nc(-c3ccc(SCC(=O)Nc4ccc(S(=O)(=O)N5CCCC5)cc4)nc3)[nH]c2cc1C | 6.1
O=C(O)CCCC(=O)Nc1nc(-c2ccc(F)cc2)cs1 | -3.64
CCN(CC(=O)Nc1c(F)cccc1F)C(=O)COc1cccc2c1OC(C)(C)C2 | 4.46
O=C1c2ccc(Cl)cc2S(=O)(=O)c2cccc(C(=O)N3CCN(c4ncc(Br)cn4)CC3)c21 | 3.23
COc1cccc(C(C(=O)NC2CCCC2)N(C(=O)c2ccco2)C2CC2)c1OC (centres unmarked) | 15.2
Cc1occc1C(=O)NNC(=O)Nc1ccc(Cl)c(Cl)c1 | 0.135
CCN(CC)CCN(C(=O)c1ccc([N+](=O)[O-])cc1)c1nc2c(OC)cccc2s1.Cl | -53.4
CNC(=O)C1=C(C)Nc2nc3ccccc3n2C1c1ccc(F)cc1 (centres unmarked) | 7.95
CC(C)(C)c1ccc(C(=O)COC(=O)CN2C(=O)NC3(CCCC3)C2=O)cc1 | 10.7
NNC(=O)c1ccc(N2CCc3ccccc32)c([N+](=O)[O-])c1 | 2.04
N#C/C(=C\c1ccccc1)C(=O)NCc1ccc(F)cc1 | 13.4
O=C(O)c1cc(-c2ccccc2)on1 | 17.8
CC(/C=C/C1(O)C(C)CC(O)CC1(C)C)OC1OC(CO)C(O)C(O)C1O (centres unmarked) | 13.1
O=C(Nc1ccc(N2CCOCC2)cc1)C1CCCCN1S(=O)(=O)c1ccccc1 (centres unmarked) | 2.21
Cc1ccc(-c2nc3cc(N)ccc3o2)cc1 | 4.61
Cc1ccc(C(=O)NC2CCN(S(=O)(=O)c3ccc(C)cc3)CC2)cc1 | 9.94
O=C(COc1ccccc1)NC(=S)Nc1cccc([N+](=O)[O-])c1 | 13.1
COc1cccc(C(=O)NC2CCCc3c2cnn3-c2cc(C)cc(C)c2)c1 (centres unmarked) | 5.25
COc1ccc(N(C(=O)CNC(=O)c2ccco2)C(C(=O)NC2CCCCC2)c2cccnc2)cc1 (centres unmarked) | 9.77

Structure (SMILES) | hERG current change (%, negative = inhibition) at 1uM [%]
Br.CCOc1ccc(C2=CS/C(=C(\C#N)c3nnc4n3CCCCC4)N2CC)cc1 | -0.859
O=C(c1cccc(F)c1)N1CCCC(C(=O)N2CCCC2)C1 (centres unmarked) | 13.8
COc1ccccc1NC(=O)N1CCC(C(=O)c2ccc(Cl)cc2)CC1 | -8.89
CCN(CC)CCn1c2c(c(SCC(=O)Nc3cc(C)on3)nc1=O)CCCC2 | 6.36
CCOC(=O)C1(Cc2ccccc2C(F)(F)F)CCN(C(=O)c2cc(C(C)=O)n[nH]2)CC1 | -7.13
Cc1ccsc1CN(C)CC(=O)NCC(=O)Nc1ccc(F)cc1 | 1.27
Cc1cc(=O)oc2cc(OCC(=O)N3CCCc4ccccc43)ccc12 | 9.46
Nn1c(SCC(=O)Nc2nccs2)nnc1C1CC1 | 2.62
CN1C(=O)N(C)C(=O)C2(Cc3cc([N+](=O)[O-])ccc3N(C)C2c2ccccc2)C1=O (centres unmarked) | 1.8
Cc1ccc(NC(=O)COC(=O)[C@@H]2CCCN2C(=O)c2cccs2)cc1S(=O)(=O)N(C)C | -41.3
O=C(Nc1cccs1)Nc1ccccc1Br | 12.5
CC(CN)(NS(=O)(=O)c1ccccc1)c1ccccc1 (centres unmarked) | 11.9
CC(=O)c1ccccc1OC(=O)CCN1C(=O)C2C3C=CC(C4CC34)C2C1=O (centres unmarked) | 11.3
O=C(c1ccc(C(F)(F)F)cc1)C1CCCN(Cc2cccn2-c2ncccn2)C1 (centres unmarked) | -88
O=C(NCc1ccco1)c1ccc(Br)s1 | -3.62
FC(F)(F)c1cnc(N2CCSCC2)c(Cl)c1 | 8.48
Cl.c1ccc(Cn2nnnc2C(c2cccs2)N2CCCCCC2)cc1 (centres unmarked) | 9.91
CNC(=O)c1ccc2snnc2c1 | 5.03
CC1CCc2nc(NC(=O)c3ccco3)sc2C1 (centres unmarked) | 1.29
COc1ccccc1S(=O)(=O)CC(O)COc1ccc(C#N)cc1 (centres unmarked) | 9.42
